This assay has as its system MPNST multicellular tumor spheroids, viability % test/control. In words: Anticancer human tumor MPNST cell line growth inhibition.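 For all read-outs here: spheroids exposed to agents for seven days after three days of growth.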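 For viability, T/C: luminescence signal used as surrogate for viable cell amount.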 The note with it: for viability, T/C: stronger effect = lower value; for IC50: compound alone. The text has this:
Multicellular complex tumor spheroid response to DNA repair inhibitors in combination with DNA-damaging drugs
This study explores the anticancer activities of DNA-damaging drugs and inhibitors of DNA damage repair, both as single agents and in combinations. Complex tumor spheroids comprised of malignant cells, endothelial cells and mesenchymal stem cells served as an in vitro model for human solid tumors. This model system incorporates physiologically relevant features and patient-derived or established malignant cell lines with clinically relevant genetic alterations from many tumor types. Twenty-six patient-derived or established malignant cell lines were evaluated representing sarcoma, melanoma, small cell lung cancer (SCLC), non-small cell lung cancer (NSCLC), as well as bladder, ovarian and pancreatic cancers. The concentration ranges selected for each drug and investigational agent were based upon clinically achievable concentrations if the clinical Cmax of the agent was known.
Compounds. The drugs and compounds olaparib (NSC753686), talazoparib (NSC767125), berzosertib (NSC777718), elimusertib (NSC800525), nedisertib (NSC802822), VX-984 (NSC792969), AZD-1390 (NSC803789), temozolomide (NSC362856), topotecan (NSC609699), trabectedin (NSC813783), staurosporine (NSC755774), and gemcitabine (NSC613327) were obtained from the National Cancer Institute (NCI) Developmental Therapeutics Program Chemical Repository. The FDA-approved anticancer drug set is available from the Developmental Therapeutics Program at https://dtp.cancer.gov/organization/dscb/obtaining/available_plates.htm. […] The stock solutions were prepared in dimethyl sulfoxide (DMSO, Sigma-Aldrich, St. Louis, MO, cat. D2650) at 400-fold the tested concentration and stored at -70 degrees C. Prior to their use, the stock solutions were diluted in fresh medium and the final DMSO concentration in the assay was 0.25% (v/v). All drugs and investigational agents were tested over a range starting from a high concentration at or near the clinical Cmax and decreasing in half-log increments. If the clinical Cmax for an agent had not been determined, the highest concentration tested was 10 microM.
Cell Lines. The patient-derived cancer cell (PDC) lines: 156681-154-R-J1-PDC, 283228-195-R-J1-PDC, 287954-098-R-J1-PDC, 292921-168-R-J2-PDC, 349418-098-R-PDC, 425362-245-T-J1-PDC, 556581-035-R-J1-PDC, and BL0293-F563-PDC were received from the NCI Patient-Derived Models Repository (PDMR, https://pdmr.cancer.gov). The established cell lines HS-SY-2 (RRID:CVCL_8719), MPNST, and SYO-1 (RRID:CVCL_7146) were obtained from the Sloan Kettering Institute. The alveolar soft parts sarcoma cell line ASPS-1 (RRID:CVCL_S738) was established at the NCI and grown from internal seed stocks. The following established cell lines were purchased from the American Type Culture Collection (ATCC, Manassas, VA): G-401 (ATCC, cat. CRL-1441, RRID:CVCL_0270), SW982 (ATCC, cat. HTB-93, RRID:CVCL_1734), VA-ES-BJ (ATCC, cat. CRL-2138, RRID:CVCL_1785), NCI-H719 (ATCC, cat. CRL-5837, RRID:CVCL_1582), NCI-H196 (ATCC, cat. CRL-5823, RRID:CVCL_1509), NCI-H841 (ATCC, cat. CRL-5845, RRID:CVCL_1595), NCI-H1618 (ATCC, cat. CRL-5879, RRID:CVCL_1480), NCI-H1876 (ATCC, cat. CRL-5902, RRID:CVCL_1503), DMS 114 (ATCC, cat. CRL-2066; RRID:CVCL_1174), NCI-H211 (ATCC, cat. CRL-5824; RRID:CVCL_1529), and SW 1271 (ATCC, cat. CRL-2177, RRID:CVCL_1716). The small cell lung cancer cell line COR-L88 was purchased from Sigma-Aldrich (cat. 92031917-1VL, RRID:CVCL_1141). The non-small cell lung cancer cell lines NCI-H226 (RRID:CVCL_1544) and NCI-H322M (RRID:CVCL_1557) were established at the NCI and grown from internal seed stocks. Pooled donor human umbilical vein endothelial cells (HUVEC, Lonza, cat. CC-2519) and human mesenchymal stem cells (hMSC, Lonza, cat. PT-2501) were purchased from Lonza (Walkersville, MD).
Cell Culture. All cells were maintained in an incubator at 37 degrees C and 5% CO2 with 95% humidity. […]

Some entries of the source have several records that differ or are many. The list is limited to them. An entry can have further records. The records of an entry repeat one measurement in other runs, samples, wells, individuals or studies. Brackets with × say how often a value occurs here. Marks such as [2022-09] give the month of the run.

As to `Cn1nnc2c(C(N)=O)ncn2c1=O`, the viability, T/C (compound alone 1 µM) is 86.3 (2×), 90.3, 103, 85.2, 95.1, 90.2, 111, 80, 72.5%; the viability, T/C (compound alone 3.16 µM) is 101, 76.1, 123, 92.4, 93.7, 89.2, 95.5, 99, 81, 69.2%; the viability, T/C (compound alone 10 µM) is recorded as 94.8, 96.6, 108, 94.2, 87.3, 97, 106, 94.5, 83.1, 72.4%; the viability, T/C (compound alone 31.6 µM) was 98.5, 78.3, 109, 91.3, 82.6, 99.6, 48.7, 98.7, 80.5, 79.3%; the viability, T/C (compound alone 100 µM) is given as 90.8, 75.5, 82.7, 94.3, 85.5, 97.9, 37.9, 104, 95.8, 67.6%.

By IC50 is commonly meant the concentration that inhibits the measured activity by half. `COc1cc2c(cc1O)CCNC21CSC2c3c(OC(C)=O)c(C)c4c(c3C(COC1=O)N1C(O)C3Cc5cc(C)c(OC)c(O)c5C(C21)N3C)OCO4` (centres undefined): the viability, T/C was 93.8, 86.8, 102, 62.2, 118, 91.2, 98.7, 79.2, 98.5, 79.6% (compound 30 pM); 54.8, 72, 97.5, 72.4, 81.7, 105, 106, 92.6, 104, 86.2% (compound 94.9 pM); 41, 67.1 (2×), 75.9, 53.2, 77.1, 88, 76.8, 109, 74% (compound alone 0.0003 µM); 23.9, 42.1, 39.7, 33.4, 46.7, 37.4, 44.3, 47, 92.1, 45.2% (compound alone 0.000949 µM). The IC50 (run of 12/16/2019) is given as 0.207, 0.644, 0.682, 0.406, 0.613, 0.659, 0.813, 0.843, 1.79, 0.782 nM.

For the compound `COc1ccc([C@@H](O)c2cc(-c3ncnc4cc(N5CCOCC5)ccc34)c(F)cc2Cl)nn1`, the IC50 was 1.74 µM [2019-11] and 1.17 µM, < 31.6 nM [2019-12]. The viability, T/C (compound alone 3.16 µM) is 37.4% [2019-11] and 31.4%, 7.89% [2019-12]. In addition, under “compound alone 10 µM”, the viability, T/C is 29.7% [2019-11] and 17.2%, 3.36% [2019-12].

Regarding `O=C(c1cc(Cc2n[nH]c(=O)c3ccccc23)ccc1F)N1CCN(C(=O)C2CC2)CC1`, the IC50 is > 30 µM [2019-11] and 1.36 µM [2019-12].

For the compound `CC[C@@]1(O)C(=O)OCc2c1cc1n(c2=O)Cc2cc3c(CN(C)C)c(O)ccc3nc2-1`, the viability, T/C (compound alone 0.003 µM) is 94.3, 101, 100, 92, 80.9% [2019-11] and 74.4, 100, 85.2, 97.3, 74% [2019-12]; the viability, T/C (compound alone 0.00949 µM) is 95.4, 88.2, 72.4, 81.4, 77.9% [2019-11] and 81.5, 105, 85.2, 80, 65.3% [2019-12]; the viability, T/C (compound alone 0.0949 µM) is 55.2, 59.2, 51.5, 54.9, 47.9% [2019-11] and 36.3, 44.1 (2×), 46.6, 32.8% [2019-12]. Where the note is “run of 11/07/2019”, the half-inhibitory concentration (IC50) is 185, 210, 70.8, 181, 66.6 nM.

On to `Cc1sc2c(c1C)C(c1ccc(Cl)cc1)=NC(CC(=O)Nc1ccc(O)cc1)c1nnc(C)n1-2` (centres undefined), for which the IC50 was 1.32 µM, > 3 µM [2019-11] and 155 nM [2019-12].

Source of the values: PubChem BioAssay AID1845205 (Molecular Pharmacology Branch, DTP, NCI, 2023).
